{
  "source": "paper PMC4336329",
  "about": "(PLoS ONE, 2015)",
  "note": "Among all 310,000 compounds or so, about 2,200 (0.71%) showed an effect of 50% or more. Effects have a minus sign here. Some of the results follow.",
  "data": [
    {"molecular_target": "human ether-à-go-go-related gene (hERG) potassium channel (human, UniProt Q12809)", "sequence (Q12809 whole entry, looked up)": "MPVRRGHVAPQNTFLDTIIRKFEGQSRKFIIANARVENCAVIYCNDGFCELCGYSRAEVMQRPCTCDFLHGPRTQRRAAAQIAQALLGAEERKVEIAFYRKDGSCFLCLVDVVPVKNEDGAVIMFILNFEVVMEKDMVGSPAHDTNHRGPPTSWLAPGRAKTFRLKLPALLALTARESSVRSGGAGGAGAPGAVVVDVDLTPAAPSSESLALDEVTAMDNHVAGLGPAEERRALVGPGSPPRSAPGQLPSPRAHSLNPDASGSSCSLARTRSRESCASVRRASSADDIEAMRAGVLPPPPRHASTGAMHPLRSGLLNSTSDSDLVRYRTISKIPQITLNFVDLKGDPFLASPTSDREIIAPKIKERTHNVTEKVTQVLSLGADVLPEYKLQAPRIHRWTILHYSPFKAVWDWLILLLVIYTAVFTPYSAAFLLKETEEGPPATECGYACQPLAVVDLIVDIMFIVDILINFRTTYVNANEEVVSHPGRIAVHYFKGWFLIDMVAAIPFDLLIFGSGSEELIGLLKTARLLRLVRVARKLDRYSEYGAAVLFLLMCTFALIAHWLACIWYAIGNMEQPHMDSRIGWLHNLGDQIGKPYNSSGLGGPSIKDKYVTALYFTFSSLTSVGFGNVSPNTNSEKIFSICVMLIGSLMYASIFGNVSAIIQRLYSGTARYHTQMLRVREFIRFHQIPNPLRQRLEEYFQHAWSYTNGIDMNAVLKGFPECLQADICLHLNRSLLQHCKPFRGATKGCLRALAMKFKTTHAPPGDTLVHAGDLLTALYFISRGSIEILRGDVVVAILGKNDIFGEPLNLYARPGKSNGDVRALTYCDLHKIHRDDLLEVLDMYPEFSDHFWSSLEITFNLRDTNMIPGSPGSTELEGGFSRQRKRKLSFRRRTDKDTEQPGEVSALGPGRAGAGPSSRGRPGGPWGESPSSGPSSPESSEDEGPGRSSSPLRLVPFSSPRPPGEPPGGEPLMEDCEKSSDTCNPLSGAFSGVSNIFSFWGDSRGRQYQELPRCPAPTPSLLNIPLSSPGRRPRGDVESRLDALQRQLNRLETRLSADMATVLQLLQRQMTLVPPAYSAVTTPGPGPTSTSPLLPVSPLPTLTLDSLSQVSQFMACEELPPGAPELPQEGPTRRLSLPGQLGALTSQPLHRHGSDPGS", "assay": "primary screen, population patch clamp on CHO cells stably expressing hERG", "units": {"hERG current change (%, negative = inhibition) at 1uM": "%"}, "values": [
      {"smiles": "O=C1N(c2ccc(Cl)c(Cl)c2)CN(Cc2ccccc2)CN1n1cnnc1", "hERG current change (%, negative = inhibition) at 1uM": 6.92},
      {"smiles": "O=C(Cc1c(O)c2ccccc2[nH]c1=O)OC1CCCCC1", "hERG current change (%, negative = inhibition) at 1uM": 20.3},
      {"smiles": "O=c1c2ccccc2nc(/C=C/c2ccc(O)cc2)n1-c1ccc(O)cc1", "hERG current change (%, negative = inhibition) at 1uM": 5.58},
      {"smiles": "CCNC(=O)NC(=O)C(C)OC(=O)c1oc2ccccc2c1CSC1CCCCC1", "note": "(centres unmarked)", "hERG current change (%, negative = inhibition) at 1uM": -0.593},
      {"smiles": "CCN1CCCC1CNC(=O)c1cn(CC)c2ccc(S(=O)(=O)N3CCCCCC3)cc2c1=O", "note": "(centres unmarked)", "hERG current change (%, negative = inhibition) at 1uM": -36.6},
      {"smiles": "O=C(NCC1CCN(C(=O)c2c(F)c(F)c(F)c(F)c2F)CC1)c1c(F)c(F)c(F)c(F)c1F", "hERG current change (%, negative = inhibition) at 1uM": 4.05},
      {"smiles": "Cc1cccc(NCc2ccccc2OCc2ccccc2F)c1", "hERG current change (%, negative = inhibition) at 1uM": 11.2},
      {"smiles": "COc1cc(Br)ccc1C1CC(=O)C(C)C(c2ccc(Br)cc2OC)N1", "note": "(centres unmarked)", "hERG current change (%, negative = inhibition) at 1uM": 14.1},
      {"smiles": "O=c1[nH]c2ccccc2n2c(-c3ccccc3)nnc12", "hERG current change (%, negative = inhibition) at 1uM": 8.99},
      {"smiles": "CCOc1ccc(CNC(=O)C2CCN(S(=O)(=O)c3ccc4c(c3)CCCC(=O)N4)CC2)cc1", "hERG current change (%, negative = inhibition) at 1uM": 11},
      {"smiles": "Cl.O=S(=O)(c1ccc2ccccc2c1)N1CCN(CCO)CC1", "hERG current change (%, negative = inhibition) at 1uM": 20.7},
      {"smiles": "COc1ccc(S(=O)(=O)Nc2ccc(C(F)(F)F)cc2)cc1OC", "hERG current change (%, negative = inhibition) at 1uM": 10},
      {"smiles": "COc1ccccc1OCc1ccc(C(=O)N2CCN3CCCC3C2)cc1", "note": "(centres unmarked)", "hERG current change (%, negative = inhibition) at 1uM": 6.51},
      {"smiles": "Cl.c1ccc(-n2ncc3c(NCCN4CCCCC4)ncnc32)cc1", "hERG current change (%, negative = inhibition) at 1uM": 5},
      {"smiles": "CC1CCCCC1NC(=O)CCNS(=O)(=O)c1cc(Br)cnc1N", "note": "(centres unmarked)", "hERG current change (%, negative = inhibition) at 1uM": 15.2},
      {"smiles": "Cc1cc(CNCc2c(C(=O)N3CCCCCCC3)nc3ccc(Cl)cn23)nn1C", "hERG current change (%, negative = inhibition) at 1uM": 9.15},
      {"smiles": "c1ccc(Cn2nnnc2C(c2ccccn2)N2CCOCC2)cc1", "note": "(centres unmarked)", "hERG current change (%, negative = inhibition) at 1uM": 16},
      {"smiles": "CSCC[C@H](NC(=O)OC(C)(C)C)C(=O)N/N=C/c1cccc2cccnc12", "hERG current change (%, negative = inhibition) at 1uM": 4.99},
      {"smiles": "CCOC(=O)c1c(NS(=O)(=O)c2cccc(OC)c2)sc2c1CCC2", "hERG current change (%, negative = inhibition) at 1uM": -9.79},
      {"smiles": "O=C1CCCN1c1ccc(C(=O)N(Cc2nnc(-c3ccccc3Cl)o2)C2CC2)cc1", "hERG current change (%, negative = inhibition) at 1uM": 12},
      {"smiles": "CC(=O)c1ccccc1NC(=O)Cn1c(=O)cnc2ccccc21", "hERG current change (%, negative = inhibition) at 1uM": 12.5},
      {"smiles": "COc1ccc(N2C(=O)C3CCCN3C2c2ccc(C)o2)cc1", "note": "(centres unmarked)", "hERG current change (%, negative = inhibition) at 1uM": 8.61},
      {"smiles": "Cn1c(O)c(/C=C2\\C=Nc3ccc(Br)cc32)c(=O)n(C)c1=O", "hERG current change (%, negative = inhibition) at 1uM": 8.69},
      {"smiles": "CC(C)(C)OC(=O)NCCCC[C@H](NC(=O)c1[nH]cnc1C(=O)Nc1ccc(Cl)cc1)C(=O)OC(C)(C)C", "hERG current change (%, negative = inhibition) at 1uM": 15.5},
      {"smiles": "CCSc1nnc(NC(=O)CSC2=NCCS2)s1", "hERG current change (%, negative = inhibition) at 1uM": 8.65},
      {"smiles": "O=C(Nc1nnc(-c2ccccc2F)s1)C1CCN(S(=O)(=O)c2ccc(Cl)cc2)CC1", "hERG current change (%, negative = inhibition) at 1uM": 15.3},
      {"smiles": "COc1cccc(CN2CCC(Oc3ccc(C(=O)N4CCCCC4)cc3)CC2)c1", "hERG current change (%, negative = inhibition) at 1uM": -0.592},
      {"smiles": "COc1ccccc1NC(=S)N(Cc1ccco1)Cc1cc2ccc(C)c(C)c2[nH]c1=O", "hERG current change (%, negative = inhibition) at 1uM": -4.79},
      {"smiles": "CCCCSc1nnc2c(n1)[nH]c1ccccc12", "hERG current change (%, negative = inhibition) at 1uM": 7.72},
      {"smiles": "O=C(c1ccc(F)cc1)N(C(=O)c1ccc(F)cc1)c1ncccn1", "hERG current change (%, negative = inhibition) at 1uM": 6.64},
      {"smiles": "O=C(CN1CCCCC1)c1c[nH]c2ccccc12", "hERG current change (%, negative = inhibition) at 1uM": 13.7},
      {"smiles": "CCN(CC)S(=O)(=O)c1cc(NC(=O)COC(=O)CCC(=O)c2cccs2)ccc1C", "hERG current change (%, negative = inhibition) at 1uM": 14.2},
      {"smiles": "O/N=C/Cc1[nH]c2ccccc2c1-c1ccccc1", "hERG current change (%, negative = inhibition) at 1uM": 8.87},
      {"smiles": "CCc1ccccc1NC(=O)CN1CCN(CC(=O)Nc2ccc(-c3ccccc3)cc2)CC1", "hERG current change (%, negative = inhibition) at 1uM": -7.45},
      {"smiles": "Cc1ccc2nc(-c3ccncc3)c(Nc3ccccc3)n2c1", "hERG current change (%, negative = inhibition) at 1uM": 11.2},
      {"smiles": "COCc1nc2sc3c(c2c(=O)[nH]1)CCCC3", "hERG current change (%, negative = inhibition) at 1uM": 17.5},
      {"smiles": "Cn1nccc1C(=O)Nc1ccc(Cl)cc1", "hERG current change (%, negative = inhibition) at 1uM": 4.84},
      {"smiles": "CN(CCO)C(=O)C(c1ccccc1)c1ccccc1", "hERG current change (%, negative = inhibition) at 1uM": 11.8},
      {"smiles": "O=C(O)c1ccc(/C=C2\\SC(=S)N(NC(=O)c3ccccc3)C2=O)cc1", "hERG current change (%, negative = inhibition) at 1uM": 10.6},
      {"smiles": "COc1ccc(NS(=O)(=O)c2cc(NC(=O)c3cnccn3)ccc2N2CCCC2)cc1", "hERG current change (%, negative = inhibition) at 1uM": 0.752},
      {"smiles": "COc1ccccc1CN=c1c([N+](=O)[O-])nn(-c2ccc3c(c2)OCCO3)n1O", "hERG current change (%, negative = inhibition) at 1uM": 4.68},
      {"smiles": "N#CCc1nn(-c2ccccc2)c(N)c1C#N", "hERG current change (%, negative = inhibition) at 1uM": 3.38},
      {"smiles": "CCOC(=O)c1sc(-c2ccc(C(F)(F)F)cc2)nc1O", "hERG current change (%, negative = inhibition) at 1uM": 13},
      {"smiles": "NS(=O)(=O)c1ccc(CCNC(=O)CN2C(=O)COc3ccc(S(=O)(=O)N4CCCC4)cc32)cc1", "hERG current change (%, negative = inhibition) at 1uM": 12.2},
      {"smiles": "COc1ccc(-c2nc3c4ccccc4ccn3c2C=O)cc1", "hERG current change (%, negative = inhibition) at 1uM": 22.2},
      {"smiles": "CC(Sc1nc2scc(-c3ccccc3)c2c(=O)[nH]1)C(=O)NC(N)=O", "note": "(centres unmarked)", "hERG current change (%, negative = inhibition) at 1uM": 8.85},
      {"smiles": "Cc1ccc(NC(=O)COc2ccc(C3SCCS3)cc2)cc1", "hERG current change (%, negative = inhibition) at 1uM": 1.47},
      {"smiles": "CCOc1ccccc1C(=O)OCC(=O)NCCc1ccc(OC)cc1", "hERG current change (%, negative = inhibition) at 1uM": -0.681},
      {"smiles": "Cc1ccc(C)c(/C=C/C(=O)c2ccccc(=O)c2O)c1", "hERG current change (%, negative = inhibition) at 1uM": -2.1},
      {"smiles": "Brc1cc2c(cc1COc1ccc(-c3nn[nH]n3)cc1)OCO2", "hERG current change (%, negative = inhibition) at 1uM": 8.02},
      {"smiles": "Cn1c(=O)c2c(nc(NCc3ccc4c(c3)OCO4)n2Cc2ccccc2)n(C)c1=O", "hERG current change (%, negative = inhibition) at 1uM": 5.61},
      {"smiles": "CC(C)Sc1nc2c(c(=O)[nH]c(=O)n2C)n1C", "hERG current change (%, negative = inhibition) at 1uM": 2},
      {"smiles": "COc1ccc(N2CCN(C(=O)Cc3coc4cc(C)ccc34)CC2)cc1", "hERG current change (%, negative = inhibition) at 1uM": 10.3},
      {"smiles": "Cc1ccc(/C=C/C(=O)NN2CCN(C)CC2)cc1", "hERG current change (%, negative = inhibition) at 1uM": 16.3},
      {"smiles": "CCOC(=O)C1CCN(S(=O)(=O)c2ccc(NC(=O)OC)cc2)CC1", "hERG current change (%, negative = inhibition) at 1uM": -18.1},
      {"smiles": "CCCC1C(=O)Nc2ccccc2N1C(=O)c1cccc(C)c1", "note": "(centres unmarked)", "hERG current change (%, negative = inhibition) at 1uM": 9.48}
    ]}
  ]
}
